# Among all 310,000 compounds or so, about 14,000 (4.5%) showed an effect of 50% or more. Effects have a minus sign here. This is one part of the list.
# Biological target: human ether-à-go-go-related gene (hERG) potassium channel (human, UniProt Q12809)
# Test: primary screen, population patch clamp on CHO cells stably expressing hERG
# 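Further: peak tail current of the secondary pulse compared with the same well before compound.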
# Sequence of human ether-à-go-go-related gene (hERG) potassium channel (Q12809 whole entry, looked up): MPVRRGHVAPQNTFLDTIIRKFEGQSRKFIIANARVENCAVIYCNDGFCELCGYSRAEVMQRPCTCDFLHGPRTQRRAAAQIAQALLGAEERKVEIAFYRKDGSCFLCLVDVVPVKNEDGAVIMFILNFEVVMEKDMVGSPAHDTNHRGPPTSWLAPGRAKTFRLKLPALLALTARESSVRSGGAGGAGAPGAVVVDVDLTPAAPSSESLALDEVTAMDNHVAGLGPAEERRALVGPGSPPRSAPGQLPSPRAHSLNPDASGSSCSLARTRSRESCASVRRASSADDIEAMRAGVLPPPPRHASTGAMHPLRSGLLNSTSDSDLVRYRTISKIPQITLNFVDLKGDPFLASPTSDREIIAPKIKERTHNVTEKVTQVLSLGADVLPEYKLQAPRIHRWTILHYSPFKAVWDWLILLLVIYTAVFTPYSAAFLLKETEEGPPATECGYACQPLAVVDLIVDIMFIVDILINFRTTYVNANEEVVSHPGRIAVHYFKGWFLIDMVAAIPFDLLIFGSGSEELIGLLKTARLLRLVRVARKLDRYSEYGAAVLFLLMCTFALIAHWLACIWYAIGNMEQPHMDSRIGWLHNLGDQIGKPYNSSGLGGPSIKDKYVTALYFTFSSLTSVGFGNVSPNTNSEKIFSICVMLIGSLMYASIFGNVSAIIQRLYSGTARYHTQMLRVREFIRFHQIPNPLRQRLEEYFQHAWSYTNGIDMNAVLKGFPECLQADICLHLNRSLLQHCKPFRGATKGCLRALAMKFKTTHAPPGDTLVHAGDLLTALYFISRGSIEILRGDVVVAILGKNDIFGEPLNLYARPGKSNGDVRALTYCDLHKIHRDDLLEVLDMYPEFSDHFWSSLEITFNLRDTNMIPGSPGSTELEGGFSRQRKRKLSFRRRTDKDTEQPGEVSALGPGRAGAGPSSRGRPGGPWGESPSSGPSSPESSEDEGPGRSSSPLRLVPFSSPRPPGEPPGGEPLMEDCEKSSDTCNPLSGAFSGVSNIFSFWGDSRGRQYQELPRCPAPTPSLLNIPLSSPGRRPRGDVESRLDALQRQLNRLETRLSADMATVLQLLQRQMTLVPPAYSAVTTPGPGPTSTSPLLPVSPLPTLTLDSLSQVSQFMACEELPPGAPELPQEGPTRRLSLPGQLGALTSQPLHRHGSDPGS
row,SMILES,"hERG current change (%, negative = inhibition) at 10uM"
1,Cc1ccc(S(=O)(=O)N2CCCC2C(=O)NCc2ccncc2)cc1 (stereo not shown),7.55%
2,CC(C)(C)c1nc2c(Br)cc(Br)cc2c(=O)o1,18.9%
3,Cc1c(NC(=O)CC2NC(=O)NC2=O)c(=O)n(-c2ccccc2)n1C (stereo not shown),1.27%
4,CCOC(=O)N1CCC(N2Cc3cccc(C(=O)O)c3C2=O)CC1,-23.6%
5,COc1cccc(-c2nnc(SCC(=O)NCc3ccc4c(c3)OCO4)n2Cc2ccco2)c1,-49.7%
6,CCn1c2ccccc2c2cc(NC(=O)c3cc(OC)c(OC)c(OC)c3)ccc21,4.1%
7,CC(=O)Nc1cccc(NC(=O)c2ccc3[nH]c(C)c(C)c3c2)c1,18.1%
8,O=C(COC(=O)c1ccc(S(=O)(=O)C(F)F)cc1)Nc1cccnc1Cl,-5.46%
9,CCn1c(/N=C/c2ccccc2NS(=O)(=O)c2ccc(C)cc2)nc2ccccc21,-19.8%
10,O=C(Cc1cccc2ccccc12)N1CCCc2ccccc21,-7.17%
11,COc1ccc(/C=C/C(O)=C2/C(=O)N(C)C3(C)CC2c2ccccc2O3)cc1 (stereo not shown),-13.4%
12,O=C(CCC1CC(=O)Nc2ccccc21)NCc1ccccc1 (stereo not shown),2.63%
13,CCOC(=O)CN1CC23C=CC(O2)C(C(=O)NCc2ccc(C)cc2)C3C1=O (stereo not shown),-2.67%
14,COc1cc(SC)ccc1C(=O)Nc1ccc(Cl)cn1,28.4%
15,O=C1c2ccccc2C(=O)N1CCSC(=S)N1CCOCC1,10.9%
16,NS(=O)(=O)c1ccc(NC(=O)c2ccc3c(c2)CCCC3)cc1,23.5%
17,Cc1cc(C)n(CC(=O)N/N=C/c2cc([N+](=O)[O-])ccc2O)n1,-11.7%
18,Cc1ccc(OCCNC(=O)c2cc(C(=O)NCCOc3ccc(C)cc3)cc([N+](=O)[O-])c2)cc1,-7.93%
19,Cc1nc(-c2ccc(Cl)cc2)sc1C1(C)CC(c2ccc(Br)cc2)=NO1 (stereo not shown),-11%
20,Cc1c(Cl)cn2c(=O)cc(CN3CCN(c4ccccc4)CC3)nc2c1Cl,-20.9%
21,COC(=O)C1=C(N)Oc2cc(N(C)C)ccc2C1c1ccccc1OC (stereo not shown),-84.3%
22,CCOc1ccc(CCNC(=O)CS(=O)(=O)Cc2nc(-c3ccccc3F)oc2C)cc1,3.08%

row,SMILES,"hERG current change (%, negative = inhibition) at 10uM"
1,CCOC(=O)N=S(=O)(Oc1ccc([N+](=O)[O-])cc1)c1ccc(Cl)cc1 (stereo not shown),-32.6%
2,O=C(NNc1cccc(Cl)n1)c1ccc(Cl)nc1,4.92%
3,Cc1c(C(=O)Nc2ccccc2)csc1-c1ccccc1,5.68%
4,N#C/C(=C/c1ccc(N2CCOCC2)o1)c1nc2ccccc2[nH]1,-14.1%
5,O=C(c1ccc2c(=O)n(C3CCCC3)c(=S)[nH]c2c1)N1CCCCCC1,-27.6%
6,CS(=O)(=O)N(CC(=O)NCCC1=CCCCC1)c1cccc([N+](=O)[O-])c1,-32.4%
7,Cc1oc(-c2ccccc2F)nc1CS(=O)CC(=O)N1CCC2(CC1)OCCO2 (stereo not shown),5.23%
8,Cc1ccc(C(=O)OCc2nnc(-c3ccccc3)o2)o1,-9.05%
9,Cc1cccc(Nc2cc(C)c3c(O)cccc3n2)c1C,-9.3%
10,C=CCNc1oc(C2CCCC2)nc1C#N,13.5%
11,COc1ccc(CN2CC(=O)N(c3cc(Cl)ccc3OC)C2=S)cc1OC,6.76%
12,CN(CCO)c1nc2c(c(=O)n(Cc3ccc(Cl)cc3)c(=O)n2C)n1C,3.79%
13,CN1CCN(NC(=O)c2ccc(Cl)s2)CC1,13.7%
14,COC(=O)C(C(=O)Nc1cc(C)on1)C1CCCCCC1 (stereo not shown),6.48%
15,CCOC(=O)CSc1ccc2nnc(CCNS(=O)(=O)c3ccccc3)n2n1,16.5%
16,O=c1oc(CCO)cc2ccc(C#Cc3ccsc3)cc12,15.8%
17,COc1ccc(S(=O)(=O)Nc2c(NC3CCCCC3)c3ccccc3oc2=O)cc1,-45.2%
18,COc1c(F)c(F)c(C(=O)Nc2ccc3oc(-c4ccncc4)nc3c2)c(F)c1F,12.4%
19,COCCn1c(SCC(=O)NC(=O)NC(C)C)nc2ccccc21,7.4%
20,COc1ccc2cc(C3(C)NC(=O)N(CC(=O)NCc4ccco4)C3=O)ccc2c1 (stereo not shown),-15.3%
21,O=C(Nc1ccncc1)c1ccc2c(c1)S(=O)(=O)c1ccccc1C2=O,-1.57%
22,CNC(=O)C(=O)Nc1c(O)c2ccccc2[nH]c1=O,3.83%

row,SMILES,"hERG current change (%, negative = inhibition) at 10uM"
1,COc1ccc(NS(=O)(=O)c2cccc(C(=O)O)c2)cc1,4.11%
2,O=C(CNC(=O)c1ccccc1)NCC(O)c1ccc([N+](=O)[O-])cc1 (stereo not shown),10.7%
3,CCOC(=O)c1cc(C#N)c(N2CCN(c3ccc(OC)cc3)CC2)[nH]c1=O,-8.77%
4,COc1cc(OC)c(OC)cc1CNCCc1ccc(OC)c(OC)c1,-6.55%
5,COc1ccccc1C(=O)NCC(=O)OC(C)C(=O)N(C)C1CCCCC1 (stereo not shown),0.317%
6,O=C1OC(c2ccc(F)cc2)=C/C1=C\c1ccc([N+](=O)[O-])o1,20.1%
7,CCOc1ccc(NC(=O)CN(C)C(=O)c2ccc(N3CCOCC3)c([N+](=O)[O-])c2)cc1OCC,-19.1%
8,CCC(=NCc1ccccc1)C1=C(O)C(C(=O)OC)C(C)(C)CC1=O (stereo not shown),-17%
9,COc1ccccc1C(=O)NCC(=O)N1CCN(c2ncccn2)CC1,6.46%
10,COc1ccccc1NC(=O)C1(c2ccccc2)CCCC1,3.06%
11,C/C(=C\C(=S)Nc1ccccc1)Nc1ccccc1,22.4%
12,CC(=O)OC1CC[C@@]2(C)C(=CC(=O)C3C4CCC(OC(C)=O)[C@@]4(C)CCC32)C1 (stereo partly shown),8.15%
13,Cc1cc(Nc2ccccc2C(=O)O)nc2nc3ccccc3c(=O)n12,2.04%
14,CC/C(=N\NC(=S)NC(C)C)c1ccc(OC(F)F)cc1,-41.6%
15,O=C1C2C3C=CC(C3)C2C(=O)N1/N=C/c1cn(Cc2ccc(F)cc2)c2ccccc12 (stereo not shown),5.84%
16,CN(CC(=O)Nn1cnnc1)S(=O)(=O)c1ccc(Br)cc1,-7.55%
17,CCOC(=O)c1ccc(NC(=O)Cn2cnc(S(=O)(=O)N3CCCC3)c2)cc1,15.1%
18,Cc1c(NC(=S)N2CCN(c3cccc(Cl)c3)CC2)c(=O)n(-c2ccccc2)n1C,-8.99%
19,Cc1ccc2oc(C(=O)NC3CCS(=O)(=O)C3)cc(=O)c2c1 (stereo not shown),27.9%
20,COc1ccc(N2C(=O)CC(N(C)CCc3ccc(OC)c(OC)c3)C2=O)cc1 (stereo not shown),4.86%
21,Cc1ccc(-n2ncc3c(NCc4ccccc4)ncnc32)cc1,12.3%
22,CCC(=O)c1cc(F)c(N2CCN(S(=O)(=O)c3ccc(C)cc3)CC2)cc1C,-15%

row,SMILES,"hERG current change (%, negative = inhibition) at 10uM"
1,O=C(CSc1ccccn1)Nc1nc2ccccc2s1,11.1%
2,COc1ccc(OC)c(NC(=O)N[C@@H](Cc2ccccc2)C(=O)O)c1,2.57%
3,Cn1cnnc1SCC(=O)Nc1ccc(Cl)c(S(=O)(=O)N2CCOCC2)c1,8.35%
4,Cc1ccccc1-c1nc(SCc2cccnc2)c2c(=O)n(C)c(=O)n(C)c2n1,10.5%
5,COc1cc(C(=O)OCC(=O)N2CC(C)OC(C)C2)cc(OC)c1OC (stereo not shown),33%
6,Cc1ccc(CNc2ccccc2C(=O)O)s1,12.7%
7,O=C(NNc1ccccn1)C(=O)NNS(=O)(=O)c1ccc(F)cc1,12.5%
8,O=C(COc1ccccc1)NC1CCS(=O)(=O)C1 (stereo not shown),18.5%
9,O=C1OC(c2ccccc2)c2ccccc21 (stereo not shown),12.8%
10,O=C(COC(=O)CCC(=O)c1cccs1)Nc1cc(S(=O)(=O)N2CCOCC2)ccc1Cl,-53.5%
11,COc1cc(/C=C/C(=O)c2ccc(Cl)s2)cc(OC)c1O,-74.4%
12,Cc1ccc(N(CC(=O)N2CCOCC2)S(=O)(=O)c2ccccc2)cc1,-2.35%
13,CC(C)CC(c1nnnn1CC1CCCO1)N1CCN(c2cccc(Cl)c2)CC1 (stereo not shown),-3.77%
14,CCOC(=O)C1=C(C)NC2=C(C(=O)c3ccccc32)C1c1ccc(O)cc1 (stereo not shown),13.3%
15,CCCCC(=O)Nc1ccc(NC(=O)c2cnccn2)cn1,24.7%
16,CCCN(C(=O)COC(=O)CCOc1ccccc1)c1c(N)n(Cc2ccccc2)c(=O)[nH]c1=O,-8.17%
17,Cc1ccccc1CSc1nc(-c2ccccc2)cc(=O)[nH]1,9.32%
18,CCOC(=O)CN1C(=O)COc2ccc(C(C)(C)C)cc21,-18.6%
19,COc1cc(/C=C(\C#N)C(=O)Nc2ccccc2C(=O)O)cc(Cl)c1OC,39.9%
20,O=C(O)Cn1c(CC(=O)N2CCCC2)nc2ccccc21,5.45%
21,COc1ccc(CCNC(=O)CN(c2ccccc2)S(C)(=O)=O)cc1OC,-8.06%
22,O=C(O)COc1ccc(-c2nnn(Cc3ccccc3F)n2)cc1,16.9%

# — paper PMC4336329 (PLoS ONE, 2015)
